This passage reports binding results from paper PMC7615196, “PIM1 controls GBP1 activity to limit self-damage and to guard against pathogen infection” (Science (New York, N.Y.), 2023).

By UniProt entry, the sequences of proteins in these tests, tags left out.
UniProt P11309: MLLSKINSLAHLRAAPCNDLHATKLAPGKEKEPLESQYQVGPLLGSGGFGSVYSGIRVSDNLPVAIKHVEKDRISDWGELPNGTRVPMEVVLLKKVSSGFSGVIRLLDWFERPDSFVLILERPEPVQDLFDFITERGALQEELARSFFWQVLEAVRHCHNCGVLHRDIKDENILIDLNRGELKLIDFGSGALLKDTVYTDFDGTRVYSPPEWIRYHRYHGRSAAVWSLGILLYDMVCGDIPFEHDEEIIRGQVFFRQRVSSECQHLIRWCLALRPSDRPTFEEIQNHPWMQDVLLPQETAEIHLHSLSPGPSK

In assay [1] the target is T1, Flag-GBP1 WT (THP-1ΔGBP1+Tet-Flag-GBP1 cells) (human) (UniProt P32455).
T1 sequence: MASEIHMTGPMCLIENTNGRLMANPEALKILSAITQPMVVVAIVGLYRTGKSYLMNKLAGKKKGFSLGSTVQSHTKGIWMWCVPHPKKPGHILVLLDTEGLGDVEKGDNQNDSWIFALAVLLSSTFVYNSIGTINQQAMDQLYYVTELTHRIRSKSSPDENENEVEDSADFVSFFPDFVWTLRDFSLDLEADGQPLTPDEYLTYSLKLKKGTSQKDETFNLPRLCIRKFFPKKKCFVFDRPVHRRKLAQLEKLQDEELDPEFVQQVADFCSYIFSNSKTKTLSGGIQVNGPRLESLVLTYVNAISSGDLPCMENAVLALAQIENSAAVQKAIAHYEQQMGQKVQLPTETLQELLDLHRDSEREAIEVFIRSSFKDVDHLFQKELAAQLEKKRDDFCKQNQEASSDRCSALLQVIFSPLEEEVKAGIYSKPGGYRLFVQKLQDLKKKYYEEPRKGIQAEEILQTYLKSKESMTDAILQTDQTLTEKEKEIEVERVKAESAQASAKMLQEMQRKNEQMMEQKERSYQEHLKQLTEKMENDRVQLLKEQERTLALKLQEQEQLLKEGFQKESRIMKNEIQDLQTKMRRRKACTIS
Kind of assay: cross-linking + co-IP; as a2, cells treated with the GBP1:PIM1 interaction inhibitor NSC756093 (100 nM on cells).

Assay [2] addresses T1, Flag-GBP1 WT (THP-1ΔGBP1+Tet-Flag-GBP1 cells) (human). Kind of assay: cross-linking + co-IP; crosslinking and immunoprecipitation of Flag-GBP1 from THP-1ΔGBP1+Flag-GBP1 cells treated with IFNγ±Dox, immunoblot.
For assay [3], the target named is T2, Flag-GBP1^T590A (transient expression) (human) (UniProt P32455).
T2 sequence: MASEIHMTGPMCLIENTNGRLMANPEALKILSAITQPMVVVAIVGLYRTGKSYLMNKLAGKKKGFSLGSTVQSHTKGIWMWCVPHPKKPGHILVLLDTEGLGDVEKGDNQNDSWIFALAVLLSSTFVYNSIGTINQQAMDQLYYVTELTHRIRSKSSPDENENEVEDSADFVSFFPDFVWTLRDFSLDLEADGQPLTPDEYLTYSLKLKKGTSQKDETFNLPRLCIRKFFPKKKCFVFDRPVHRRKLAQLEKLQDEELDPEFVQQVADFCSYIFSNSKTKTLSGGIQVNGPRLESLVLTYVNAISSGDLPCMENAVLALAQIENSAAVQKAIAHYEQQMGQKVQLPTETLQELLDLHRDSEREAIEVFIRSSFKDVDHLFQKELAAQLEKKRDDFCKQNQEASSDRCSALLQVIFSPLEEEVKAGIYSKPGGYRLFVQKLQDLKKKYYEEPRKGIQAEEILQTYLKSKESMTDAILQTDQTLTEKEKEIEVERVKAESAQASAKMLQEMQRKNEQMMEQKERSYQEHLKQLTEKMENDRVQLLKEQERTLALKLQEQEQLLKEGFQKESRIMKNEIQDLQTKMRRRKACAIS
Kind of assay: co-IP; immunoprecipitation of co-transfected Flag-GBP1 (WT or mutants) and HA-tagged 14-3-3 proteins, washes with 260 mM NaCl, immunoblot.

Assay [4] deals with T3, Flag-GBP1^R153A/P158A (transient expression) (human) (UniProt P32455).
T3 sequence: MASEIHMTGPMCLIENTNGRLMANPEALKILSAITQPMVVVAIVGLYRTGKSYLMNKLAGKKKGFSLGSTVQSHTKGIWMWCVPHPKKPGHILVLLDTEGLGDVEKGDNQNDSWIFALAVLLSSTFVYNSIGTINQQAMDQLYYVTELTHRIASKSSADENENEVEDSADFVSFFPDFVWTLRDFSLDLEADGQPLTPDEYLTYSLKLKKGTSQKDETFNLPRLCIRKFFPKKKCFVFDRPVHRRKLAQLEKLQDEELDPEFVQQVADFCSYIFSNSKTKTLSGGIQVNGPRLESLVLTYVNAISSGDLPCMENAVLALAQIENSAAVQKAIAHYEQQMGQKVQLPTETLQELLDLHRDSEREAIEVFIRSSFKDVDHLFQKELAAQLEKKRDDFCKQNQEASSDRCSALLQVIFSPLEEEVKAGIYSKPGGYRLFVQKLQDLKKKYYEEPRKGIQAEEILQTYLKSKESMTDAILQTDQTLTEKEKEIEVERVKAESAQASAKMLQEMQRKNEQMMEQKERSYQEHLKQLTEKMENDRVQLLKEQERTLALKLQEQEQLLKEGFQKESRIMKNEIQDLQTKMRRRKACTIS
The description is as above.

Assay [5] addresses T4, Flag-GBP1 WT (transient expression, pcDNA3.1(+)) (human) (UniProt P32455).
T4 sequence: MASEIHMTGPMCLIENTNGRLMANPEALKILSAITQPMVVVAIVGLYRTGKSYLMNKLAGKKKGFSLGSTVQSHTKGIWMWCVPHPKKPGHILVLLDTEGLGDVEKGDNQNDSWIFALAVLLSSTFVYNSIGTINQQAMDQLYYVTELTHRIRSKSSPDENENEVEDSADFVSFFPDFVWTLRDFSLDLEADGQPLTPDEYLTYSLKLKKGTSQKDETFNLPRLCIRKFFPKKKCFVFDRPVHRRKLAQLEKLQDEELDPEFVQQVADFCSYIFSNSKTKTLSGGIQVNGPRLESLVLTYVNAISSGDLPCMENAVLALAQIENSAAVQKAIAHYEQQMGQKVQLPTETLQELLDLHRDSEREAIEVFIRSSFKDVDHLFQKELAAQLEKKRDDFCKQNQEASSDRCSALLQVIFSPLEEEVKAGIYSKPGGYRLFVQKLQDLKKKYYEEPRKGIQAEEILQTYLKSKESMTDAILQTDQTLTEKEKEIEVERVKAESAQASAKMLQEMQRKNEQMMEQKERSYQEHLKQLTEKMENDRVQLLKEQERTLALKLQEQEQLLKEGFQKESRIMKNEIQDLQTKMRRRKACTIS
Described as above.

For assay [6], the target named is T5, Flag-GBP1^S156A (transient expression) (human) (UniProt P32455).
T5 sequence: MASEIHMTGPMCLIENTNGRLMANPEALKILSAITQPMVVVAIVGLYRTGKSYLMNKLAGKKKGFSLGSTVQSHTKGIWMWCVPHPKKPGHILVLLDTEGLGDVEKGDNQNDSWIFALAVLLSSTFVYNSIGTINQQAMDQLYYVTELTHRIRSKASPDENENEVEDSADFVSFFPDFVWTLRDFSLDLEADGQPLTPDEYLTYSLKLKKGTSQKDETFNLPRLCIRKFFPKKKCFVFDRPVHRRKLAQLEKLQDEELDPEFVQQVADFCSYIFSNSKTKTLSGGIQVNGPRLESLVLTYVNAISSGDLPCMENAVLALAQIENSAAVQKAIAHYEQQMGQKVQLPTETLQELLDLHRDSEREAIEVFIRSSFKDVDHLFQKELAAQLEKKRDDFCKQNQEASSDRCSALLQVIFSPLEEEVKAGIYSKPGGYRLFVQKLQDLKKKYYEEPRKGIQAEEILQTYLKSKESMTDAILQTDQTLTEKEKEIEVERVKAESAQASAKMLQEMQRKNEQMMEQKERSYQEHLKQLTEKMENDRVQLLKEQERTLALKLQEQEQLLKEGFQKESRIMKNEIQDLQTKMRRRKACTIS
Described as above.

These are yes or no findings as the source states them, for the method shown. In cells and extracts the contact can be indirect. Some entries that bind do so weakly or less than the wild type. Tags and fused reporters may be left off the sequences shown.

In the case of “PIM1 (endogenous, IFNγ-exposed THP-1 cells) (from UniProt P11309 1-313) (enzyme)”, the figures for the binding entry in assay [1] and in assay [2] were “no binding (condition: with NSC756093 (100 nM on cells))” and “binds”, respectively.

B1: HA-14-3-3ε (natural protein)
chain: MDDREDLVYQAKLAEQAERYDEMVESMKKVAGMDVELTVEERNLLSVAYKNVIGARRASWRIISSIEQKEENKGGEDKLKMIREYRQMVETELKLICCDILDVLDKHLIPAANTGESKVFYYKMKGDYHRYLAEFATGNDRKEAAENSLVAYKAASDIAMTELPPTHPIRLGLALNFSVFYYEILNSPDRACRLAKAAFDDAIAELDTLSEESYKDSTLIMQLLRDNLTLWTSDMQGDGEEQNKEALQDVEDENQ
B1: the binding result in assay [3] was “binds”; in assay [4], “no binding”; in assay [5], “binds”; in assay [6], “no binding”.

B2: HA-14-3-3ζ (natural protein)
chain: MDKNELVQKAKLAEQAERYDDMAACMKSVTEQGAELSNEERNLLSVAYKNVVGARRSSWRVVSSIEQKTEGAEKKQQMAREYREKIETELRDICNDVLSLLEKFLIPNASQAESKVFYLKMKGDYYRYLAEVAAGDDKKGIVDQSQQAYQEAFEISKKEMQPTHPIRLGLALNFSVFYYEILNSPEKACSLAKTAFDEAIAELDTLSEESYKDSTLIMQLLRDNLTLWTSDTQGDEAEAGEGGEN
Regarding B2, the binding entry was “binds” in assay [3], “no binding” in assay [4], “binds” in assay [5] and “no binding” in assay [6].

B3: HA-14-3-3β (natural protein)
chain: MTMDKSELVQKAKLAEQAERYDDMAAAMKAVTEQGHELSNEERNLLSVAYKNVVGARRSSWRVISSIEQKTERNEKKQQMGKEYREKIEAELQDICNDVLELLDKYLIPNATQPESKVFYLKMKGDYFRYLSEVASGDNKQTTVSNSQQAYQEAFEISKKEMQPTHPIRLGLALNFSVFYYEILNSPEKACSLAKTAFDEAIAELDTLNEESYKDSTLIMQLLRDNLTLWTSENQGDEGDAGEGEN
For B3, the binding entry is “binds” in assay [3], “no binding” in assay [4], “binds” in assay [5] and “no binding” in assay [6].

B4: HA-14-3-3θ (natural protein)
chain: MEKTELIQKAKLAEQAERYDDMATCMKAVTEQGAELSNEERNLLSVAYKNVVGGRRSAWRVISSIEQKTDTSDKKLQLIKDYREKVESELRSICTTVLELLDKYLIANATNPESKVFYLKMKGDYFRYLAEVACGDDRKQTIDNSQGAYQEAFDISKKEMQPTHPIRLGLALNFSVFYYEILNNPELACTLAKTAFDEAIAELDTLNEDSYKDSTLIMQLLRDNLTLWTSDSAGEECDAAEGAEN
B4: the binding entry is recorded as “binds” in assay [3], “no binding” in assay [4], “binds” in assay [5] and “no binding” in assay [6].

B5: HA-14-3-3γ (natural protein)
chain: MVDREQLVQKARLAEQAERYDDMAAAMKNVTELNEPLSNEERNLLSVAYKNVVGARRSSWRVISSIEQKTSADGNEKKIEMVRAYREKIEKELEAVCQDVLSLLDNYLIKNCSETQYESKVFYLKMKGDYYRYLAEVATGEKRATVVESSEKAYSEAHEISKEHMQPTHPIRLGLALNYSVFYYEIQNAPEQACHLAKTAFDDAIAELDTLNEDSYKDSTLIMQLLRDNLTLWTSDQQDDDGGEGNN
For the molecule B5, the binding entry in assay [3] is listed as “binds”; in assay [4], “no binding”; in assay [5] it was “binds”; in assay [6], “no binding”.

B6: HA-14-3-3η (natural protein)
chain: MGDREQLLQRARLAEQAERYDDMASAMKAVTELNEPLSNEDRNLLSVAYKNVVGARRSSWRVISSIEQKTMADGNEKKLEKVKAYREKIEKELETVCNDVLSLLDKFLIKNCNDFQYESKVFYLKMKGDYYRYLAEVASGEKKNSVVEASEAAYKEAFEISKEQMQPTHPIRLGLALNFSVFYYEIQNAPEQACLLAKQAFDDAIAELDTLNEDSYKDSTLIMQLLRDNLTLWTSDQQDEEAGEGN
Consider B6, for which the binding entry in assay [3] is reported as “binds”; in assay [4] it was “no binding”; in assay [5], “binds”; in assay [6], “no binding”.
